Among all 48,000 compounds or so, about 120 (0.25%) were called active. Not shown: some 4% with an inconclusive outcome. The call rests on the fitted dose curve; in most records, active means well fitted activation curve with a large enough effect; inconclusive means small, poorly fitted or top-dose-only effect, or another doubt; inactive means no such curve, though single readings can be large or run the other way. This is one part of the list.
experiment: Primary qHTS for Identification of Small Molecule Activators of Huntingtin-Antisense Promoter Activity; details: HEK293 HTT-AS promoter firefly luciferase reporter (activity 0% = vehicle and -100% = no light), 24 h; series mostly up to 57.5 µM; activity change, positive = activation: at the top concentration; further: nearly all actives have a fitted effect of over 55% in size
Outline: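 Firefly luciferase readout (Dual-Glo, 10 min RT) after 24 h, 37 °C compound exposure (final up to 57.5 uM) of HEK293 reporter cells cultured 24 h beforehand; PTC124 at 50 uM final as control inhibitor; activity scaled vehicle 0%, zero RLU -100%.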

Activity change, positive = activation, inactive:
CCC(=O)NCCc1sc2nc(-c3ccc(OC)cc3)nn2c1C 21.7%
CCCS(=O)(=O)Nc1cccc(-c2cn3ccsc3n2)c1 0.221%
Cc1cccc(CSc2nc3ccncc3n2CC(=O)N(C)C2CCCCC2)c1 -22.8%
COc1ccc(CCNC(=O)c2ccc3nc(CCc4ccccc4)oc3c2)cc1OC -8.33%
COc1ccc(NC(=O)Cn2c(=O)oc3cc(S(=O)(=O)N4CCCC4)ccc32)cc1OC -31.6%
COc1ccc(OC)c(NC(=O)c2nnn(CC(=O)Nc3ccc(C(C)C)cc3)c2N)c1 -13.2%
CCCCc1cc2ccccc2c(OCCN(C)C)n1 -35.1%
COc1ccc(NC(=O)Cn2cnc3c(nc4n3CCCCC4)c2=O)cc1Cl -1.69%
Cc1cccc(NC(=O)CN2C(=O)C(c3ccc(F)cc3)=NC23CCCCCC3)c1C -51.1%
Cc1cc2c(cc1S(=O)(=O)NCc1ccc(F)cc1)OCC(=O)N2 -16.1%
COc1ccc(NC(=O)CN2C(=O)COc3ccc(S(=O)(=O)NC4CCCC4)cc32)cc1OC -8.57%
Cc1ccc(-n2ncc3c(NC4CCCCC4)ncnc32)cc1C -21%
CCC(C(=O)NC(=O)NC(C)=O)c1ccccc1 (stereo not drawn) -9.86%
O=C(c1ccccc1)n1nc(-c2ccc(Cl)cc2)nc1NCc1ccco1 26.4%
CSc1ccc(CCNC(=O)Cn2ncc3c([nH]c4ccccc43)c2=O)cc1 -16.5%
CCOC(=O)c1cc2c(=O)n3ccccc3nc2n(CCOC)c1=NC(=O)c1c(-c2c(F)cccc2Cl)noc1C -29.3%
Cc1ccc2occ(CC(=O)Nc3c(C)cccc3C)c2c1 -13.7%
CCCN(C(=O)c1ccc2c(=O)n3c(nc2c1)CCCCC3)c1cccc(Cl)c1 -5.34%
Cc1cc(C)cc(NCc2nnc3n2CCCCC3)c1 -4.28%
COc1ccc(OCC(=O)N2CCN(C(=O)c3ccc(OC)c(OC)c3)CC2)cc1 -4.14%
Cc1cccc(C)c1NC(=O)CCSCCc1ccccn1 -10.8%
Cc1cccc(C)c1NC(=O)C(C)N (stereo not drawn) -7.85%
COc1cn(CC(=O)Nc2ccc(C)cc2)c(CN2CCCCC2)cc1=O 0.383%
CC(=O)N1CCc2cc(Br)cc(S(=O)(=O)CCC(=O)NCc3ccc(F)cc3)c21 -5.41%
O=C(CCNS(=O)(=O)c1ccc2c(c1)CCN2C(=O)C1CC1)Nc1ccc(Cl)cc1 -39.5%
COc1ccccc1CN1CCC(CNC(=O)c2cnn(-c3cccc(Cl)c3)c2C2CCN(C(=O)OC(C)(C)C)CC2)CC1 -13.8%
COC(=O)c1c(NC(=O)c2cc(=O)c3cc(C)cc(C)c3o2)sc2c1CCC2 4.37%
CCOC(=O)c1ccc(NC(=O)c2nc(SCc3ccc(F)cc3)ncc2Cl)cc1 -32.1%
COc1ccccc1NC(=O)c1cc2cc3ccc(OC)c(Cl)c3nc2s1 -4.24%
Cc1ccc(CC(=O)NCc2nc(-c3ccccc3)no2)cc1 -4.31%
CCCCn1c(=O)c2oc3ccccc3c2n(Cc2ccc(C)cc2)c1=O -3.93%
COc1ccc2ncc3c(-c4ccc(C)c(C)c4)nn(CC(=O)Nc4ccccc4)c3c2c1 -18.1%
Cc1cc(SCC(=O)Nc2ccc(F)cc2F)nc(=O)[nH]1 -11.4%
COc1ccccc1C(=O)NC(=O)Nc1ccc(-c2cc(C(F)(F)F)nn2-c2ccccc2)cc1 -62.7%
CCc1ccc(C(=O)c2cn(CC(=O)Nc3ccc4c(c3)OCO4)c3ccc(Cl)cc3c2=O)cc1 -12.7%
CCc1ccc(N(CC)C(=O)c2cn(C)c(=O)c3cc(OC)c(OC)cc23)cc1 -11.8%
NS(=O)(=O)c1ccc(N2CCCCS2(=O)=O)cc1 1.66%
CC(C)(C)C1CCc2c(sc3nc(-c4cc5cc(Cl)ccc5oc4=O)[nH]c(=O)c23)C1 (stereo not drawn) 1.05%
CCN(CC)c1ccc(NC(=O)C2CCN(S(=O)(=O)c3c(C)noc3/C=C/c3ccccc3F)CC2)c(C)c1 2.84%
Cc1ccc(NC(=O)Cn2nc(C(F)(F)F)c3c2CCCC3)cc1 -22.9%
Cc1ccc(S(=O)(=O)NCCc2nnc3ccc(SCC(=O)Nc4c(C)cc(C)cc4C)nn23)cc1 -15.1%
CCOc1ccc(CCNC(=O)c2c3c(nc4ccccc24)C(=O)N(C2CCCCC2)C3)cc1 -19.5%
CCn1c(CNC(=O)c2ccc(OC)cc2)nnc1SCC(=O)Nc1cccc(C)c1 -11.4%
Cc1ccc(S(=O)(=O)N2CCCc3cc(NC(=O)c4ccc(Cl)cc4)ccc32)cc1 12.3%
O=C(Nc1cccc(C(F)(F)F)c1)Nc1cc(S(=O)(=O)NC2CC2)ccc1-c1ccsc1 -18.3%
Cc1ccc(C)c(NC(=O)c2oc(=O)c3ccccc3c2-c2ccccc2)c1 -32.9%
CCCc1nn2c(=O)cc(COC(=O)c3ccc4c(c3)OCO4)nc2s1 6.06%
Cc1cc2nc(-c3ccc(OCc4ccccc4F)cc3)cc(C(F)(F)F)n2n1 0.616%
Cc1ccc(-c2c(C(=O)Nc3ccccc3F)oc(=O)c3ccccc23)cc1 -12.8%
CCOC(=O)c1cccc(NC(=O)C2=C(C)C(=O)OC23CCCCC3)c1 -16.9%
Cc1ccc(C)c(N2CCN(C(=O)Cn3cnc4nc5c(cc4c3=O)CCCC5)CC2)c1 -33.5%
Cc1ccc(C)c(Cn2c(SCC(=O)NCc3ccccc3)nc3ccccc32)c1 -30.9%
Cn1c(NCCN)nc2c1c(=O)n(Cc1ccccc1)c(=O)n2C 8.44%
O=C(Cn1cc(S(=O)(=O)Cc2ccccc2F)c2ccccc21)Nc1ccc(F)c(Cl)c1 -43.9%
COc1ccc(CNc2ncnc3c2c(-c2ccccc2)cn3-c2ccc(C)c(Cl)c2)cc1 -25%
COc1cccc(C(=O)Nc2nc(-c3nnn(-c4cccc(Cl)c4C)c3C)ns2)c1 -31.1%
COc1ccc(NC(=O)Cn2c(=O)n(-c3ccc(OC)cc3)c(=O)c3sc4ccccc4c32)cc1 -5.21%
COc1ccc2c(CNCc3ccco3)c(C(=O)O)n(Cc3cccc(F)c3)c2c1 -24.3%
CCCN(CCC)C(=O)C1CCN(c2cc(C)nc3c(-c4ccc(Cl)cc4)c(C)nn23)CC1 -1.05%
COc1ccc(C(=O)Nc2ccc(-c3nc4ccccc4s3)c(Cl)c2)cc1Cl -6.17%
Cn1c(NCCCO)nc2c1c(=O)n(Cc1cccc(F)c1)c(=O)n2C 5.72%
COc1cc(C(=O)Nc2cc(C)c(O)c(-c3nc4ccccc4s3)c2)cc(OC)c1OC -14.9%
O=C(NCCO)c1ccc(-c2nnc(Nc3ccc(OC(F)(F)Cl)cc3)c3ccccc23)cc1 -49.1%

From PubChem BioAssay AID1508624 (National Center for Advancing Translational Sciences (NCATS), 2021)
